Laboratory results published in PubChem BioAssay AID1963576 (National Center for Advancing Translational Sciences (NCATS), 2024).
Screen size: about 46,000 compounds; about 60 (0.1%) were called active. Not shown: some 3% with an inconclusive outcome. Calls come from the whole dose curve; as a rule, active = well fitted inhibition curve with a large enough effect; inconclusive = small, poorly fitted or top-dose-only effect; inactive = no such curve, though single readings can be large or run the other way. Some of the results follow.

Assay: Primary qHTS assay for Inhibitors of ovarian cancer metastasis using an organotypic tumor microenvironment (TME) model.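 For Potency: count of GFP cancer cells still attached after washing and fixation.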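 For activity change, negative = inhibition: plate controls were DMSO wells for no effect and tomatine positive control wells for full effect.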 Note: nearly all actives have a fitted effect of over 65% in size.
Conditions: SKOV3ip1-GFP adhesion/invasion on 3D omental model, fluorescence; series mostly up to 45.8 µM; activity change, negative = inhibition: at the top concentration
Summary of the method: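 qHTS, 4-pt dose (0.36-46 umol/L); SKOV3ip1-GFP, 1,200 cells/well, no FBS; primary omental fibroblast/mesothelial co-culture 48 h pre-grown; 2 h RT + 16 h 37 C; PBS wash, 4% PFA; GFP count 488/509 nm.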
Potency is the fitted concentration of half-maximal effect.

**Q.** With `Cc1cccc(N2C(=O)N(Cc3ccc(C(C)(C)C)cc3)c3ccccc3S2(=O)=O)c1` as the molecule, how does the “activity change, negative = inhibition” value read?
**A.** The value was inactive: 0.353%.

**Q.** Which Potency does the source give for `CCC[C@H](NC(=O)C(C#N)=Cc1cccc(Br)n1)c1ccccc1` here?
**A.** Its Potency is active: 11.8 µM.

**Q.** With `Cc1c(C(=O)Nc2ccc(N3C[C@@H](C)O[C@@H](C)C3)nc2)cccc1-c1ccc(OC(F)(F)F)cc1` as the molecule, how does the “activity change, negative = inhibition” value read?
**A.** The value was inactive: 27.1%.

**Q.** For `Cc1ccccc1CNC(=O)c1ccc(Cn2c(SCc3ccccc3)nc3cccnc32)cc1`, which “outcome” value is on record?
**A.** The value was “inactive”.

**Q.** With `COCCCOc1ccnc(CS(=O)c2nc3ccccc3[nH]2)c1C` (stereo unspecified) as the molecule, how does the “activity change, negative = inhibition” value read?
**A.** Its value is inactive: 9.32%.

**Q.** Which “activity change, negative = inhibition” value does the source give for `CC1CCCN(S(=O)(=O)c2cc(C(=O)NCCc3ccccc3)n(C)c2)C1` (stereo unspecified) here?
**A.** The value was inactive: -3.83%.

**Q.** With `COc1ccc(CNC(=O)c2ccc3c(c2)CCN3S(=O)(=O)c2ccccc2)cc1` as the molecule, how does the “activity change, negative = inhibition” value read?
**A.** The value was inactive: -1.77%.

**Q.** Which “activity change, negative = inhibition” value does the source give for `CCOc1ccc(Nc2oc(-c3ccc(COc4ccc(C)cc4)o3)nc2C#N)cc1` here?
**A.** Its value is inactive: -17%.

**Q.** With `CCn1cc(C(=O)NCc2ccccc2Cl)c(=O)c2cc(S(=O)(=O)N3CCCCCC3)ccc21` as the molecule, how does the “outcome” value read?
**A.** Its value is “inactive”.

**Q.** With `CCc1ccc(C(=O)Nc2cccc(-c3nc4cc(C(C)C)ccc4o3)c2)cc1` as the molecule, how does the “outcome” value read?
**A.** The value was “inactive”.

**Q.** Which “outcome” value does the source give for `CC(=O)c1cccc(NC(=O)Nc2cc3c(cc2N2CCCC2)n(C)c(=O)n3C)c1` here?
**A.** Its value is “inactive”.

**Q.** Which “activity change, negative = inhibition” value does the source give for `Cc1ccc(Cl)cc1NC(=O)c1ccc2nc(CCc3ccccc3)oc2c1` here?
**A.** Its value is inactive: -11.8%.

**Q.** Which “activity change, negative = inhibition” value does the source give for `COc1ccc(CNc2nc(-c3ccco3)nn2C(=O)c2ccccc2C)cc1` here?
**A.** The value was inactive: -6.37%.

**Q.** With `Cc1ccc(-c2nc(CNC(=O)NC3CCCCC3)c(C)o2)cc1` as the molecule, how does the “activity change, negative = inhibition” value read?
**A.** Its value is inactive: -2.3%.

**Q.** For `Cc1ccc(C)c(NC(=O)Cn2c(=O)n(CC(=O)NCCc3ccccc3)c(=O)c3ccccc32)c1`, which “outcome” value is on record?
**A.** The value was “inactive”.

**Q.** Which “activity change, negative = inhibition” value does the source give for `O=C(CCCn1c(=O)[nH]c2ccsc2c1=O)N1CCN(c2ccc(Cl)cc2)CC1` here?
**A.** The value was inactive: 56.9%.

**Q.** For `CCOC(=O)c1sc2cccc(F)c2c1S(=O)(=O)Nc1ccccc1F`, which “activity change, negative = inhibition” value is on record?
**A.** Its value is inactive: -13.2%.

**Q.** With `O=C(CSc1nnc(-c2ccc(Cl)cc2)c(-c2ccc(Cl)cc2)n1)NC1CCCC1` as the molecule, how does the “activity change, negative = inhibition” value read?
**A.** Its value is inactive: 31.4%.

**Q.** For `Cc1ccc(NC(=O)Cn2c(=O)cc(-c3ccccc3)c3c(C)nn(C)c32)c(Cl)c1`, which “activity change, negative = inhibition” value is on record?
**A.** The value was inactive: 4.28%.

**Q.** For `O=S(=O)(c1ccccc1)c1nc(-c2ccco2)oc1SCc1ccc(F)cc1`, which “activity change, negative = inhibition” value is on record?
**A.** The value was inactive: 3.33%.

**Q.** For `CCCCC(=O)Nc1ccc(C(=O)OCc2cc(=O)n3ccsc3n2)cc1`, which “activity change, negative = inhibition” value is on record?
**A.** The value was inactive: -7.99%.

**Q.** Which “outcome” value does the source give for `COc1ccc(NC(=O)c2nnn(CC(=O)Nc3cc(C)cc(C)c3)c2N)c(OC)c1` here?
**A.** Its value is “inactive”.

**Q.** Which “activity change, negative = inhibition” value does the source give for `CCN(C(=O)c1cc(S(=O)(=O)N2CCCC2)cn1C)c1ccc(OC)cc1` here?
**A.** Its value is inactive: -1.83%.

**Q.** Which “activity change, negative = inhibition” value does the source give for `COc1ccc(Cn2c(SCc3ccc(C(=O)NCc4cccs4)cc3)nc3ccncc32)cc1` here?
**A.** Its value is inactive: -9.19%.

**Q.** For `CCOC(=O)CC(NC(=O)CCc1c(C)nc2cc(-c3ccccc3)nn2c1C)c1ccc(C)cc1` (stereo unspecified), which “activity change, negative = inhibition” value is on record?
**A.** Its value is inactive: 12.9%.

**Q.** With `COC(=O)c1ccc(NC(=O)CSc2nc3cc4ccccc4cc3[nH]2)cc1` as the molecule, how does the “activity change, negative = inhibition” value read?
**A.** Its value is inactive: 8.49%.

**Q.** For `CCOCCCNC(=O)Cn1nc(CC)n2c(cc3c(OC)cccc32)c1=O`, which “activity change, negative = inhibition” value is on record?
**A.** Its value is inactive: -12.9%.

**Q.** Which “activity change, negative = inhibition” value does the source give for `O=C(Nc1cc(F)ccc1F)c1cnn2c(C(F)F)cc(-c3ccccc3)nc12` here?
**A.** The value was inactive: 7.66%.

**Q.** Which “outcome” value does the source give for `COc1cc(OC)c(NC(=O)C(C)n2nc(-c3ccc(C)cc3)c3c(c2=O)CCCC3)cc1Cl` (stereo unspecified) here?
**A.** The value was “inactive”.

**Q.** With `N#Cc1ccccc1NC(=O)C(=O)NCC(c1cccnc1)N1CCc2ccccc21` (stereo unspecified) as the molecule, how does the “activity change, negative = inhibition” value read?
**A.** The value was inactive: 19.5%.

**Q.** Which “activity change, negative = inhibition” value does the source give for `COc1ccccc1-c1cc2nc(C)c(CCC(=O)NC3CCCCC3)c(C)n2n1` here?
**A.** The value was inactive: -9.62%.

**Q.** For `Cc1ccc(S(=O)(=O)c2nnn3c2nc(N2CCN(c4cccc(C)c4C)CC2)c2ccccc23)cc1C`, which “activity change, negative = inhibition” value is on record?
**A.** The value was inactive: 0.479%.

**Q.** With `Cc1ccc(NC(=O)C2CCCN(c3ncnc4onc(C)c34)C2)cc1Cl` (stereo unspecified) as the molecule, how does the “activity change, negative = inhibition” value read?
**A.** Its value is inactive: 0.243%.

**Q.** For `O=C(c1ccccc1)c1ccc2nc(N3CCN(c4ccc(F)cc4)CC3)c3nncn3c2c1`, which “activity change, negative = inhibition” value is on record?
**A.** The value was inactive: 7.22%.

**Q.** Which “activity change, negative = inhibition” value does the source give for `CC(=O)c1cc2c(cc1N/C(=N/S(=O)(=O)c1ccc(F)cc1)c1ccccc1)OCO2` here?
**A.** Its value is inactive: 2.24%.

**Q.** Which “outcome” value does the source give for `CCc1ccc(-c2nc(CSCC(=O)NCc3ccc(C)cc3)c(C)o2)cc1` here?
**A.** The value was “inactive”.

**Q.** For `COc1ccc(CN2CCN(S(=O)(=O)c3ccc(NC(C)=O)cc3)CC2)c(OC)c1OC`, which “activity change, negative = inhibition” value is on record?
**A.** Its value is inactive: -1.66%.

**Q.** With `O=C(NC1CCCCC1)c1ccc2c(c1)N(Cc1cccc(Cl)c1)C(=O)c1ccccc1S2=O` (stereo unspecified) as the molecule, how does the “activity change, negative = inhibition” value read?
**A.** The value was inactive: -17.4%.

**Q.** For `CCN(Cc1ccccc1)C(=O)CCS(=O)(=O)c1ccc2c(c1)CCN2C(C)=O`, which “activity change, negative = inhibition” value is on record?
**A.** The value was inactive: -7.81%.

**Q.** Which “outcome” value does the source give for `CCc1ccc(NC(=O)c2sc3nc(C)cc(C)c3c2NC(=O)c2ccccc2OC)cc1` here?
**A.** Its value is “inactive”.

**Q.** With `COc1cc(OC)c(NC(=O)CSc2cc(=O)n(C)c3ccc(Cl)cc23)cc1Cl` as the molecule, how does the “activity change, negative = inhibition” value read?
**A.** Its value is inactive: 39.4%.

**Q.** With `CCOc1ccc(CCNC(=O)Cn2c(C)c3cnn(-c4ccccc4)c(=O)c3c2C)cc1` as the molecule, how does the “outcome” value read?
**A.** Its value is “inactive”.

**Q.** Which “activity change, negative = inhibition” value does the source give for `O=C(NCc1ccco1)c1ccc2c(c1)N(Cc1cccc(Cl)c1)C(=O)c1ccccc1S2=O` (stereo unspecified) here?
**A.** The value was inactive: -20.6%.

**Q.** Which “activity change, negative = inhibition” value does the source give for `O=C(Cn1ncc2c3ccccc3n(Cc3cccc(Cl)c3)c2c1=O)N1CCCCCC1` here?
**A.** The value was inactive: 2.91%.

**Q.** With `Nc1ncc(S(=O)(=O)NCc2ccc(F)cc2)cn1` as the molecule, how does the “activity change, negative = inhibition” value read?
**A.** Its value is inactive: 7.36%.

**Q.** With `Cc1ccc2[nH]c3c(=O)n(CC(=O)N4CCCC(C)C4)ncc3c2c1` (stereo unspecified) as the molecule, how does the “activity change, negative = inhibition” value read?
**A.** The value was inactive: 7.48%.

**Q.** For `CC(C)c1cccc(C(C)C)c1NS(=O)(=O)c1cccs1`, which “outcome” value is on record?
**A.** The value was “inactive”.

**Q.** With `CC(CCCc1ccccc1)NC(=O)c1nn(-c2ccc(Cl)cc2)nc1CO` (stereo unspecified) as the molecule, how does the “activity change, negative = inhibition” value read?
**A.** The value was inactive: -2.2%.

**Q.** Which “outcome” value does the source give for `Cc1ccccc1Cn1c2ccccc2c2cnn(CC(=O)NCCc3ccc(Cl)cc3)c(=O)c21` here?
**A.** Its value is “inactive”.

**Q.** With `CC(=O)c1cccc(Nc2nc(-c3ccccc3Cl)nc3ccccc23)c1` as the molecule, how does the “outcome” value read?
**A.** The value was “inactive”.

**Q.** For `Cc1cccc(OCCn2c(-c3ccc(Cl)cc3)nc3ccccc3c2=O)c1C`, which “outcome” value is on record?
**A.** Its value is “inactive”.

**Q.** With `CCOc1ccccc1NC(=O)c1cc2c(=O)[nH]c3ccccc3c2s1` as the molecule, how does the “activity change, negative = inhibition” value read?
**A.** The value was inactive: 1.11%.

**Q.** For `Cc1cccc2sc(N(Cc3cccnc3)C(=O)COc3ccccc3)nc12`, which “activity change, negative = inhibition” value is on record?
**A.** Its value is inactive: 15.7%.

**Q.** For `COc1ccc(C(=O)CCC(=O)Nc2cc(C)ccc2C)cc1`, which “activity change, negative = inhibition” value is on record?
**A.** Its value is inactive: 0.276%.

**Q.** Which “outcome” value does the source give for `CCOC(=O)c1c(C)[nH]c(C)c1S(=O)(=O)NCC(=O)N1CCN(c2ccccc2F)CC1` here?
**A.** Its value is “inactive”.

**Q.** With `COc1ccc(-c2nc3ccccc3s2)cc1NC(C)=O` as the molecule, how does the “activity change, negative = inhibition” value read?
**A.** Its value is inactive: 1.58%.

**Q.** Which “activity change, negative = inhibition” value does the source give for `Cc1cc(C)c2c(-n3cccc3)c(C(=O)NCC(C)c3ccccc3)sc2n1` (stereo unspecified) here?
**A.** Its value is inactive: 0.239%.

**Q.** For `COc1ccc(CNC(=O)C2CCN(S(=O)(=O)c3ccc4c(ccn4C)c3)CC2)cc1`, which “outcome” value is on record?
**A.** The value was “inactive”.

**Q.** Which “outcome” value does the source give for `Cn1cc(-c2cc3n(n2)CCC(=O)N3CCCC(=O)Nc2ccccc2F)c2ccccc21` here?
**A.** Its value is “inactive”.

**Q.** With `COc1ccc(-c2nc(S(=O)(=O)c3ccc(C)cc3)c(NCc3ccccc3)o2)cc1` as the molecule, how does the “activity change, negative = inhibition” value read?
**A.** The value was inactive: 0.796%.

**Q.** Which “activity change, negative = inhibition” value does the source give for `Cc1cc(C)c2c(=O)c3c(oc2c1)C(=O)N(Cc1ccco1)C3c1ccccc1F` (stereo unspecified) here?
**A.** Its value is inactive: 3.98%.
